# The whole screen tested about 350,000 compounds, of which about 9,900 (2.8%) were called active. Inconclusive results, whose numbers are uncertain, are shown with a selection of clear calls. Calls come from the whole dose curve; as a rule, active = well fitted activation curve with a large enough effect; inconclusive = small, poorly fitted or top-dose-only effect; inactive = no such curve, though single readings can be large or run the other way. Potencies of inconclusive entries are left out as doubtful fits.
# Test: A quantitative high throughput screen for small molecules that induce DNA re-replication in MCF 10a normal breast cells. For activity, positive = re-replication: % of control where 0% means no effect. Note: nearly all actives have a fitted effect of over 50% in size.
# Settings: MCF 10A DNA re-replication, Hoechst nuclear intensity, 48 h; activity, positive = re-replication: at 46.1 µM (top of the series)
# Potency is the fitted concentration of half-maximal effect; tags give direction and shape of the fitted curve.
Structure (SMILES),Potency,"activity, positive = re-replication"
O=C(Nc1ccc(Cl)c(Cl)c1)N1CC=C(c2ccccc2)CC1,active: 14.6 µM,–
CCN(Cc1nc2cc(Cl)ccc2c(=O)[nH]1)C(=O)c1ccc(C)c(NC(=O)c2ccco2)c1,"inconclusive [activator, single point]",–
C(=C/c1ccnc2nc(SC/C=C/c3ccccc3)nn12)/c1ccccc1,"inconclusive [activator, partial curve]",–
O=C(Nc1ccc(Cl)c([N+](=O)[O-])c1)c1ccc(NCCCN2CCOCC2)c([N+](=O)[O-])c1,"inconclusive [activator, full curve, poor fit]",–
COc1ccc(NC(=O)c2cc3c(CO)cnc(C)c3oc2=Nc2cccc(F)c2)c(OC)c1,"inconclusive [activator, partial curve]",–
O=C(/C=C/c1ccc([N+](=O)[O-])cc1)OCC(=O)N1CCOCC1,active: 18.4 µM,–
C=CCNC(=O)c1ccccc1NC(=O)c1cccc2ccccc12,"inconclusive [activator, full curve, poor fit]",–
Cc1cccc(OCCN2CCOCC2)c1C,–,inactive: 4.07%
CCN(CC)c1ccc(/C=N/N2CCN(Cc3ccccc3)CC2)c(O)c1,"inconclusive [activator, partial curve, poor fit]",–
CCN(CC)c1ccc(NC(=O)c2ccccc2F)cc1,"inconclusive [activator, single point]",–
C=CCOc1ccc(/C=C/C(=O)OCC(=O)NCc2cccs2)cc1,"inconclusive [activator, partial curve]",–
CC(=O)Oc1c(Cl)c(N2CCOCC2)c(OC(C)=O)c2ccccc12,"inconclusive [activator, single point]",–
CCc1ccc(OCCNC(=O)c2cccs2)cc1,"inconclusive [activator, single point]",–
COC(=O)c1ccc(-c2ccco2)n1Cc1ccccc1Cl,"inconclusive [activator, partial curve, poor fit]",–
CCC(CC)c1nnc(NC(=O)CCS(=O)(=O)Cc2ccccc2)s1,"inconclusive [activator, single point]",–
CCOc1ccc(CN(C(=O)c2oc3ccccc3c2C)C2CCS(=O)(=O)C2)cc1 (stereo unspecified),"inconclusive [activator, single point]",–
COc1ccc(-c2[nH]ncc2/C=N/NC(=O)c2ccc(Br)cc2)c(OC)c1,–,inactive: -0.725%
CCOC(=O)c1c(/N=C/c2cc(OC)cc([N+](=O)[O-])c2O)sc(C)c1C,"inconclusive [activator, partial curve, poor fit]",–
COC(=O)c1c(NC(=O)/C=C/c2ccc3c(c2)OCO3)sc(C)c1C,"inconclusive [activator, single point]",–
CSC1=NC(C)(C)C=C(/C=C/c2c(Cl)cccc2Cl)N1,"inconclusive [activator, partial curve, poor fit]",–
Cc1cccc(N2CCN(C(=O)COCc3cc(-c4ccc5c(c4)OCO5)on3)CC2)c1C,"inconclusive [activator, single point]",–

Structure (SMILES),Potency,"activity, positive = re-replication"
CCOC(=O)c1ccccc1C(=O)N1CCOCCOCCOCC1,"inconclusive [activator, single point]",–
COc1cc(CC(NC(C)=O)C(=O)NC2CCN(c3nc(OC)nc(OC)n3)CC2)cc(OC)c1 (stereo unspecified),"inconclusive [activator, full curve, poor fit]",–
CCN(CC)S(=O)(=O)c1cccc(NC(=O)COC(=O)c2cc(C)oc2C)c1,–,inactive: -2.54%
CCOCCCNC(=O)c1c(N)n(-c2ccc(S(N)(=O)=O)cc2)c2nc3ccccc3nc12,"inconclusive [activator, full curve, poor fit]",–
CCOC(=O)c1sc(NC(=O)CSc2nc3c(c(=O)n2-c2ccc(C)cc2)SCC3)c(C(=O)OCC)c1C,"inconclusive [activator, full curve, poor fit]",–
Cc1nc(NC(=O)/C=C/c2ccccc2)sc1C(=O)Nc1ccc(Cl)cc1,active: 16.4 µM,–
CCC(CO)Oc1cc(NCc2ccccc2OC)c2ncn(C(C)C)c2c1 (stereo unspecified),"inconclusive [activator, single point]",–
CCN(C(=O)COC(=O)Cc1c[nH]c2ccccc12)C1CCS(=O)(=O)C1 (stereo unspecified),–,inactive: -1.39%
Cc1[nH]c2ccccc2c1/C=N/NC(=O)CNC(=O)c1ccc2c(c1)OCCO2,"inconclusive [activator, partial curve, poor fit]",–
O=S(=O)(O)c1nc2ccccc2[nH]1,"inconclusive [activator, full curve, poor fit]",–
CN(C)c1ccc(/C=C/c2ccncc2)cc1,"inconclusive [activator, single point]",–
O=C(Oc1ccc(-c2ccccc2)cc1)c1ccco1,–,inactive: 13.6%
COC(=O)c1[nH]c2cc(C)ccc2c1NC(=O)CN1CCN(c2ccccc2OC)CC1,–,inactive: 26.1%
CCCCOc1ccccc1C(=O)N(Cc1ccco1)C1CCS(=O)(=O)C1 (stereo unspecified),–,inactive: -1.5%
COc1ccc(N2CCN(C(=O)NC(=O)c3ccc(Cl)cc3)CC2)cc1,"inconclusive [activator, partial curve, poor fit]",–
CCCOc1ccccc1C(=O)N1CCNC(=O)C1CC(=O)OC(C)C (stereo unspecified),–,inactive: -6.22%
O=S(=O)(c1cccc(NC(=S)N2CCN(c3cccc(Cl)c3)CC2)c1)C(F)F,"inconclusive [activator, partial curve, poor fit]",–
CCOc1ccc(NS(=O)(=O)c2ccc(Cl)c(C(=O)N(C)Cc3cccnc3)c2)cc1,"inconclusive [activator, single point]",–
CC(C)CCCCCCNC(=S)Nc1ccc(S(=O)(=O)N2CCOCC2)cc1,active: 13 µM,–
CCn1cc(C(=O)NCCc2ccc(OC)c(OC)c2)c(=O)c2cc(S(=O)(=O)N3CCOCC3)ccc21,"inconclusive [activator, single point]",–
